From ChEMBL document CHEMBL4888484, “Replenishing the malaria drug discovery pipeline: Screening and hit evaluation of the MMV Hit Generation Library 1 (HGL1) against asexual blood stage Plasmodium falciparum ,using a nano luciferase reporter read-out” (2022)
Hit rate of the full screen: of about 150,000 compounds, about 540 (0.36%) showed an effect of 50% or more. This is one part of the list.

Tested on: Plasmodium falciparum
Experiment: Primary screen in NF54 nanoGlo assay, in single point, at 2uM, 72h; a lower Z score goes with more inhibition
Format: functional, Erythrocyte
Settings: timepoint 72 hour

| Compound | % Inhibition [%] | Z score |
| --- | --- | --- |
| O=C(NCc1ccc(F)c(Cl)c1)c1nnn2c1c(=O)[nH]c1ccccc12 | 1 | -0.1 |
| CCc1sc(N(C(=O)C2CCCCC2)c2cccc(F)c2)nc1-c1ccccc1 | 10 | -1.28 |
| Cc1cc(C)n(-c2ccc(NCCNc3ncccc3C#N)nc2)n1 | -11 | 1.36 |
| C[C@H]1CCCCN1CCNC(=O)c1cnc(-c2ccsc2)s1 | -7 | 0.72 |
| CN(C)Cc1ccc(CN2CCNC(=O)C2)c2c1OC(F)(F)O2 | -13 | 1.8 |
| Cc1cccc(N2CCC(NC(=O)COc3ccc(N4CCN(C5CCCCC5)CC4)nn3)CC2)c1 | -10 | 1.12 |
| CC(C)(NCc1ccc(F)cc1F)c1nc2c(c(C(N)=O)n1)OCO2 | 8 | -1.05 |
| Cc1ccc(CNC(=O)[C@H]2CCN(CC(F)(F)F)C2)nc1C | 4 | -0.59 |
| Nc1cc(=O)[nH]c(NCCc2ccccc2)n1 | 5 | -0.71 |
| CN(C)c1ccc(CN2CCCC[C@H](N)C2)cn1 | -4 | 0.83 |
| C=CCNC(=O)C1CCC(c2cccc(C)c2)N(C(=O)c2ccc(F)cc2)C1 (stereo not drawn) | -10 | 0.94 |
| N#Cc1ccc(OC2CCC(NC(=O)Nc3cccnc3)CC2)nc1 (stereo not drawn) | 3 | -0.27 |
| CC(=O)NC1(c2noc(C(F)(F)F)n2)CCCCCC1 | -9 | 1.78 |
| Cc1ccc(-n2nc3c(N4CCN(C(=O)Nc5ccc(C)c(Cl)c5)CC4)nnc(C)c3c2C)cc1 | -1 | 0.11 |
| O=C(CCc1nnc(CCCCc2ccccc2)o1)N1CCCC1 | -9 | 1.38 |
| CC(C)c1nnc(CN2C[C@@H]3CCC[C@]3(C(N)=O)C2)o1 | -2 | 0.41 |
| N#Cc1cn(-c2cccc(COC[C@H]3CCCCO3)c2)c(=O)[nH]c1=O | -14 | 1.43 |
| c1ccc(-c2cnc3n2C[C@H](CNCc2c[nH]c4ccccc24)OC3)cc1 | 5 | -0.84 |
| Cc1cccc(NC(=O)CC2(C(=O)O)Cc3ccccc3C2)c1 | -2 | 0.26 |
| CCOc1ncccc1-c1cnn([C@@H]2CCCCO2)c1 | -10 | 0.94 |
| Cn1cc(CNC2CCCCCC2C(N)=O)cn1 (stereo not drawn) | -9 | 1.43 |

| Compound | % Inhibition [%] | Z score |
| --- | --- | --- |
| COc1cc(CN(C)[C@H]2CCc3nnc(C4CCOCC4)n3CC2)cc(OC)c1 | 45 | -6.02 |
| Cn1c(CNC(=O)CC2(CS(C)(=O)=O)CC2)nc2ccc(F)cc21 | -2 | 0.27 |
| O=C(COc1ccc(Cl)cc1)N1CCn2cnnc2C1 | 5 | -0.89 |
| CN(C)c1ccc2c(c1)CN(C(=O)c1ccn(C)n1)CCO2 | -3 | 0.53 |
| COC(=O)[C@H]1CC[C@H](C(=O)N2CCC3CCC(C2)N3C(C)C)CC1 (stereo partly drawn) | -2 | 0.19 |
| O=C(CCOc1ccccc1Cl)NCCN1CCOCC1 | -11 | 1.47 |
| O=S(=O)(Cc1cc(Cl)cc(Cl)c1)NCCCCn1ccnc1 | 33 | -4.43 |
| C[C@H](NCC(=O)Nc1ccc2c(c1)OC1(CCCCC1)O2)c1ccc(F)c(F)c1 | -8 | 1.02 |
| O=C(NCc1cccnc1)[C@H]1CC(=O)N(CCc2c[nH]c3ccc(Cl)cc23)C1 | -5 | 0.91 |
| CC(C)[C@H](NC(=O)c1n[nH]c2c1CCC2)c1nc2ccccc2n1C(C)C | -10 | 1.88 |
| Cc1cccc2[nH]c(COC(=O)C3CCCC3)cc12 | -8 | 1.26 |
| C[C@H]1c2ccsc2CCN1C(=O)c1ccc(C(N)=O)cn1 | 0 | 0.04 |
| O=C(NCc1ccco1)c1cccc(Nc2c(Oc3ccc(Cl)cc3)cnn(-c3cccc(Cl)c3)c2=O)c1 | -18 | 2.58 |
| CC(C)C(NC(=O)C1CCCCC1C)C(=O)N1CC=C(c2ccccc2)CC1 (stereo not drawn) | 34 | -3.84 |
| COc1cccc([C@H]2N(c3cccc(Cl)c3)C(=O)[C@@H]3CCCN32)c1OC | -5 | 0.71 |
| C[C@@]1(C(=O)NC2CCCCCC2)Cn2c(nc3ccccc32)C(=O)N1CCc1ccccc1 | -24 | 2.36 |
| C[C@@H](C(=O)NCc1cccs1)N1CCn2ccnc2C1 | -14 | 1.77 |
| Cn1nnnc1N1CCC[C@H](CNc2ccc(Cl)cc2)C1 | -17 | 2.72 |
| COc1ccccc1OCC(=O)Nc1cnoc1 | -11 | 1.76 |
| O=C1C[C@H](N2CCCCC2)C(=O)N1Cc1ccccc1 | -7 | 0.84 |
| C[C@H](NC(=O)CCn1cnnn1)C1=CCCCC1 | 4 | -0.57 |

| Compound | % Inhibition [%] | Z score |
| --- | --- | --- |
| Cc1ccc(C(=O)N[C@@H]2CCC[C@@H]2C(=O)N2CCc3ccccc3C2)c(O)n1 | 4 | -0.67 |
| O=C(NCCc1ccccc1)C1=Cc2ccccc2OC1 | -3 | 0.24 |
| O=C(c1cn(-c2ccc(F)cc2F)c(=O)c2ccccc12)N1CCC(Cc2ccccc2)CC1 | 11 | -1.26 |
| CS(=O)(=O)N[C@H]1CCN(Cc2cnc(-c3ccccc3)o2)C1 | -8 | 1.31 |
| Cc1cc2nc(C)c(=O)n(Cc3ccc(C(=O)NC4CCCCC4)cc3)c2cc1C | -6 | 0.93 |
| COc1ccccc1NS(=O)(=O)c1cc(-c2cnc(C)o2)ccc1OC | -7 | 1.26 |
| Cc1ccc(NC(=O)Nc2nc(C(=O)N3CCN(Cc4ccc5c(c4)OCO5)CC3)cs2)cc1 | 3 | -0.39 |
| CC(C)(O)[C@@H]1CCCN1C(=O)c1ccc(-c2ncon2)cc1 | -10 | 1.02 |
| CCCCNc1nnc(-c2nn(C)cc2Cl)s1 | -27 | 3.94 |
| CC#CCCNC(=O)CCCOc1ccc(C)c(C)c1 | 6 | -0.7 |
| Cc1ccsc1-c1cn(Cc2nc3ccc(Cl)cc3[nH]2)nn1 | -5 | 0.62 |
| O=C(CN1CCCCCCC1)N1CCCc2ccccc21 | 5 | -0.71 |
| COc1cccc([C@@H](O)Cn2cnc(C(C)(C)C)cc2=O)c1 | 3 | -0.43 |
| COc1ccc(CC(=O)N2CC3(C[C@H](N4CCCCC4)CO3)C2)cc1 | -5 | 0.75 |
| O=C(CCC[C@@H]1[C@H]2CCCN3CCC[C@@H](CN1C(=O)c1ccccc1)[C@@H]23)Nc1ccc(N2CCOCC2)cc1 | 11 | -2.16 |
| CNC(=O)Nc1ccc(Cl)c(C(=O)O)c1 | -7 | 0.82 |
| Cc1nc(CC(=O)NCc2ccccc2C(F)(F)F)sc1C(=O)NCC(C)C | 3 | -0.42 |
| CCN1CCC(N(C)CCn2cncn2)C(C)C1 (stereo not drawn) | -9 | 0.8 |
| O=C(NC1CCCCCC1)[C@H]1CC(=O)N(c2[nH]nc3cccc(F)c23)C1 | 12 | -1.51 |
| CS(=O)(=O)N1CCC[C@H]1C(=O)N(CCc1ccccc1)Cc1cccnc1 | -9 | 1.7 |
| Cc1nc(N)nc(N2C[C@H](O)[C@@H](N(C)C)C2)c1Cl | 1 | -0.16 |

| Compound | % Inhibition [%] | Z score |
| --- | --- | --- |
| C[C@H](NC(=O)CC(F)(F)F)c1ccccc1 | -5 | 0.94 |
| CCCCC(=O)Nc1cc(NC(=O)c2cnc[nH]2)ccc1OC | -14 | 1.86 |
| O=C(C1CCC(O)CC1)N1CCC[C@@H]1CN1CCCCCC1 (stereo partly drawn) | -13 | 1.69 |
| COCCN1C(=O)CC(CC(=O)N2CCCC(COc3ccccc3C)C2)(c2ccccc2F)C1=O (stereo not drawn) | 15 | -1.94 |
| CCCC(C)(C)NC(=O)c1sccc1CC | -7 | 1.08 |
| CCNC(=O)CN(C)CC(F)(F)c1ccc(F)cc1 | -10 | 1.22 |
| COc1cc(CC(=O)N2CCO[C@H](c3ncon3)C2)ccc1Cl | -6 | 0.99 |
| CCCCOc1ccc(C2C3C(=O)N(c4ccc5ccccc5c4)C(=O)C3ON2c2ccccc2)cc1OCC (stereo not drawn) | -4 | 0.47 |
| O=C1CC(C(=O)N2CCOCC2)C(c2ccc3c(c2)OCCO3)O1 (stereo not drawn) | 39 | -5.05 |
| Cc1cc([C@@H]2CCCN2S(=O)(=O)NCc2ccccc2)on1 | -5 | 0.86 |
| CC(C)C1(CNC(=O)Cc2cncnc2)CC1 | -8 | 1.38 |
| COc1ccc(CCn2cc(-c3ccc4c(c3)OCCO4)nn2)cc1O | -7 | 0.63 |
| CCN1CC2(CCN(C(=O)c3cc[nH]n3)CC2)C[C@@H](c2ccccc2)C1=O | -8 | 1.53 |
| CNC(=O)c1ccc(Cn2cncc(Br)c2=O)cc1 | 1 | -0.1 |
| COc1ncncc1CN1CCC(C(F)(F)F)CC1 | -37 | 4.31 |
| Cc1cccc(C)c1OCC(=O)N(Cc1ccc(N(C)C)cc1)[C@H]1CCS(=O)(=O)C1 | -17 | 1.55 |
| Cc1cc(C)cc(CN2C(=O)NC3(CCS(=O)(=O)CC3)C2=O)c1 | 6 | -0.71 |
| COc1ccc(-c2n[nH]c(C)c2NC(=O)C2CCCCC2)cc1OC | 0 | 0.01 |
| COc1cc(NC(=O)CN2CCC[C@H](c3cc(O)ncn3)C2)cc(OC)c1 | -15 | 2.13 |
| O=C(Nc1ccc(N2CCN(C(=O)c3ccco3)CC2)c(Cl)c1)c1ccc2nsnc2c1 | -42 | 4.93 |
| CCOC(=O)c1n[nH]c(C(F)(F)F)c1Cl | 4 | -0.6 |
